Hit rate of the full screen: of about 150,000 compounds, about 540 (0.36%) showed an effect of 50% or more. Some of the results follow.

Usually % Inhibition stands for the change of the read-out against control, counted positive when it falls.

This assay deals with Plasmodium falciparum. The assay is described as follows: Primary screen in NF54 nanoGlo assay, in single point, at 2uM, 72h; a lower Z score goes with more inhibition. In kind it is functional, Erythrocyte. Particulars: timepoint 72 hour.
For `CC(C)c1ncc(CN(C)Cc2ncon2)cn1`, the “% Inhibition” value was -10% and the Z score amounted to 1.28.
For `CN(CC(=O)c1ccc(O)cc1)C(=O)CCCN1CCCCC1`, the “% Inhibition” value was 13% and the Z score is on record as -1.73.
As for `CC(C)Nc1ncc(-c2nc(CC(N)=O)nn2-c2cccnc2)cn1`, the “% Inhibition” value is -2% and the Z score is on record as 0.34.
`CC1CCN(C(=O)COCc2nnc(C(=O)Nc3ccc(F)cc3)s2)CC1`: the “% Inhibition” value is on record as -10% and the Z score is 1.48.
Consider `C[C@@H](CCN1CC(N2CCOCC2)C1)c1ccccc1`, for which the “% Inhibition” value is reported as -3% and the Z score was 0.5.
As for `CN(Cc1ccc(Cl)c(F)c1)C(=O)NC1CCCC(C(N)=O)C1` (stereo not drawn), the “% Inhibition” value was 0% and the Z score was -0.04.
Take `CC(=O)Nc1c(-c2ccccc2)c(C)nn1-c1ccc(C(=O)N2CCN(c3ncccn3)CC2)cc1`: the “% Inhibition” value was 11% and the Z score is recorded as -1.25.
`CN(C)C1(CNS(=O)(=O)CCOc2ccccc2F)CCCCC1`: the “% Inhibition” value is reported as -2% and the Z score was 0.19.
The like results for `CC(=O)Nc1nc(C(=O)NCCOc2ccc3c(c2)OCO3)cs1` were, in that order, -8% and 1.52.
In the case of `C[C@@]1(C2CCN(Cc3ccccc3)CC2)NC(=O)N(C2Cc3ccccc3C2)C1=O`, the “% Inhibition” value was found to be 17% and the Z score is reported as -2.18.
As for `CCn1ccc(C(=O)N2CC[C@H](c3nc(CCOCC4CCOCC4)no3)C2)n1`, the “% Inhibition” value is -10% and the Z score came out at 1.25.
Take `CCNc1nc(C)c(C(=O)N(C)Cc2cc(C)on2)s1`: the “% Inhibition” value is -18% and the Z score was 2.63.
The like results for `Cc1ccc(F)cc1S(=O)(=O)N(Cc1cccnc1)C1CC1` were, in that order, -2% and 0.29.
`CCNC(=NCc1cccc(N(C)C)n1)NCC`: the “% Inhibition” value is recorded as -10% and the Z score amounted to 1.01.
For `CCn1cc(S(=O)(=O)NCc2nc(-c3cccs3)n[nH]2)cn1`, the “% Inhibition” value was -1% and the Z score is listed as 0.12.
For the molecule `Cc1cc(NC(=O)CN(C)S(C)(=O)=O)cc(C)c1Br`, the “% Inhibition” value turned out to be 1% and the Z score is given as -0.21.
For `O=C(Nc1ccc(-c2nccn2C(F)F)cc1)N1CCC[C@@H]1CO`, the “% Inhibition” value is -13% and the Z score worked out at 2.23.
With `CC(C)CN1C[C@@H](c2ncnn2CCO)CC1=O`, the “% Inhibition” value was -14% and the Z score is on record as 2.56.
Regarding `CC[C@H](NC(=O)NCc1ncccn1)c1ccc(OC(F)F)cc1`, the “% Inhibition” value was 17% and the Z score is recorded as -2.16.
As for `CN(C)C(=O)N1CCN(c2ccc3ccc(F)cc3n2)CC1`, the “% Inhibition” value is listed as -16% and the Z score is given as 1.92.
Consider `CC(C)(C)OC(=O)NCC1CCN(C(=O)[C@@H]2Cc3ccccc3O2)CC1`, for which the “% Inhibition” value was determined as 2% and the Z score is given as -0.33.
On to `O=C1c2ccccc2C(=O)N1C[C@H]1CCCCO1`, for which the “% Inhibition” value was -4% and the Z score was 0.46.
The like results for `CN(C)[C@@H]1CN(C(=O)c2ccncc2)CC[C@@]1(O)c1ccccc1` were, in that order, 0% and 0.04.
As to `CC(=O)NCc1ccc(-c2noc(Cc3c(Cl)cccc3Cl)n2)s1`, the “% Inhibition” value was determined as 0% and the Z score is reported as -0.05.

The values above are taken from ChEMBL document CHEMBL4888484, “Replenishing the malaria drug discovery pipeline: Screening and hit evaluation of the MMV Hit Generation Library 1 (HGL1) against asexual blood stage Plasmodium falciparum ,using a nano luciferase reporter read-out” (2022).
